According to the supplement of paper PMC5499739:
In all, about 16,000 sequences were measured (“Z-score”: median about -0.37, highest 2% from about 3.1 on). The list shows a part of the results.

Test system: RBM10 RRM1-ZnF-RRM2 (GST-tagged construct)
Assay: RNAcompete 7-mer binding Z-score; higher = stronger binding preference
Procedure: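 RNAcompete: 20 pmol GST-tagged RBM10 RNA-binding constructs were incubated with a designed RNA pool of about 241,000 sequences up to 41 nt (1.5 nmol) on glutathione beads for 30 min at 4 °C and washed. Bound RNAs were identified by microarray hybridisation. Each RNA 7-mer is scored by a one-sided Z-score of its enrichment, computed over probes that contain the 7-mer within longer pool sequences.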

Row | Sequence | RNAcompete 7-mer binding Z-score
1 | UGGUGUG | 2.21
2 | CACCGGA | 0.0604
3 | CGCCAAU | -0.704
4 | UGUCCGC | -0.777
5 | ACCACCC | -0.65
6 | CGCUACC | -0.755
7 | AAGGUCG | 1.74
8 | AACAGAU | -0.0415
9 | GAUCGAU | -0.213
10 | AGAGCGU | -0.169
11 | CGGUUCC | -0.453
12 | ACGUUAU | -0.519
13 | CAGGGGA | 2.8
14 | CUCGCCC | -0.632
15 | CCACCAC | -0.482
16 | AUAGAUC | -0.107
17 | UUCCACA | -0.508
18 | GACUUAA | -0.592
19 | CUGAGUC | -0.548
20 | GUAAGCU | 0.115
21 | UCAUUUU | -0.792
22 | AGGCGGU | 1.19
23 | AUCGAGG | 1.4
24 | CGAUACG | -0.165

Row | Sequence | RNAcompete 7-mer binding Z-score
25 | CGUUGUC | -0.581
26 | GAGGCGA | 1.56
27 | GUUGAUC | -0.227
28 | AAUGUUC | -0.566
29 | ACCCCUC | -0.639
30 | UGCGGAC | 0.206
31 | CCUUCUG | -0.887
32 | UACUCAA | -0.734
33 | UAUAACC | -0.624
34 | GACCCUC | -0.999
35 | AUAGGUG | 2.41
36 | CUGGUUU | -0.493
37 | AACCCGG | -0.402
38 | UCCAAUG | -0.362
39 | CCAUUCG | -0.774
40 | UCGAGGA | 0.905
41 | CGUGACG | 0.0167
42 | CAUACGG | 0.483
43 | CGGGAGG | 2.96
44 | GAAAAUC | -0.307
45 | UUUGCUA | -0.686
46 | UGAGCAG | 0.705
47 | CCUAUCC | -0.967
48 | GCCAGAA | -0.337

Row | Sequence | RNAcompete 7-mer binding Z-score
49 | UGCCUCC | -0.701
50 | CCACUUG | -0.81
51 | GGCUAGU | -0.0962
52 | ACCCCGC | -0.686
53 | UAAUGAG | 0.25
54 | GGCGUGU | 1.04
55 | ACGGUUU | 0.0568
56 | CACCUUG | -0.632
57 | UCAGAGG | 0.738
58 | AACGUGU | 0.101
59 | GAGGCCU | -0.497
60 | CCGACCG | -0.566
61 | CGGAGUG | 1.61
62 | ACCCGGC | -0.639
63 | UUAACGG | 0.232
64 | UGCCCAU | -0.795
65 | GCUAGCU | -0.471
66 | AAGCCCU | -0.89
67 | UAGACAA | 0.0896
68 | CGUAAAU | -0.599
69 | CACAUUG | -0.562
70 | GUGACUA | 0.162
71 | UCCUGUA | -0.795
72 | GCUUGCC | -0.697

Row | Sequence | RNAcompete 7-mer binding Z-score
73 | AUAACCU | -0.825
74 | GCGAAUG | 0.8
75 | UAAAAAA | -0.417
76 | GACCAGC | -0.584
77 | UUGCGCA | -0.497
78 | AGGGCUG | 1.07
79 | CACUCCG | -0.672
80 | AAAAACC | -0.602
81 | AAGGAAU | 2.34
82 | GUAAUAA | -0.162
83 | CCUCCGC | -0.734
84 | GAUCACG | -0.133
85 | AGCCCAC | -0.803
86 | UUGUGAC | -0.453
87 | UCGCUAG | -0.457
88 | AUUUUCA | -0.785
89 | UUCGUCG | -0.3
90 | AUCCCGA | -0.839
91 | UCGACUA | -0.61
92 | CCACGUA | -0.581
93 | UGAUGGA | 1.53
94 | ACCCGAU | -0.712
95 | ACUCGAG | -0.333
96 | GGCGCUG | 0.385

Row | Sequence | RNAcompete 7-mer binding Z-score
97 | GUCCAAU | -0.347
98 | UAUCUUG | -0.704
99 | GUGUAGU | 0.942
100 | ACAACCC | -0.53
101 | UAUCGGG | 1.13
102 | GGCUGCA | 0.21
103 | CGGUCGU | -0.0816
104 | GAAAACU | -0.176
105 | CCGCGAG | -0.53
106 | AAGUAUA | -0.0925
107 | GCGACCU | -0.712
108 | UGCAUGG | 1.19
109 | ACCCGCU | -0.872
110 | GGAACCU | -0.147
111 | UCAUGAG | -0.169
112 | GGACGUC | 0.148
113 | CCUCUUG | -0.93
114 | CCUCAUG | -0.661
115 | CCUGAAG | -0.504
116 | UCGGAAC | 0.0532
117 | ACUUUCC | -0.905
118 | UAUCUCG | -0.806
119 | UAGAGCA | 0.396
120 | CCAAUCA | -0.537

Row | Sequence | RNAcompete 7-mer binding Z-score
121 | AUCCCUC | -0.759
122 | CGUCUGC | -0.836
123 | CUUGACC | -0.908
124 | AAUUCGG | 0.0932
125 | CAUAUGC | -0.49
126 | GGCCAGU | 0.173
127 | UAUUACU | -0.581
128 | CCCAGCA | -0.755
129 | ACCGACA | -0.788
130 | CCUCAAG | -0.599
131 | CAGUAGA | 0.352
132 | AGCGUCU | -0.701
133 | AAUAGUU | -0.307
134 | CCCCAAC | -0.683
135 | CAUCAUC | -0.701
136 | GCCGAAA | -0.577
137 | UUUACGU | -0.621
138 | CCAGCGA | -0.0306
139 | CCUUUUC | -0.941
140 | GGCGACG | 1.32
141 | UACGCAC | -0.606
142 | GUACGGA | 1.08
143 | GUCCCCU | -0.497
144 | AAAACAU | -0.231

Row | Sequence | RNAcompete 7-mer binding Z-score
145 | GGAGAGG | 3.28
146 | GCACCAU | -0.442
147 | GAUUUAC | -0.409
148 | CCACUAU | -0.781
149 | GUCACUG | -0.14
150 | UGCACCG | -0.242
151 | AUUUUGG | 0.159
152 | CCUCCGG | -0.504
153 | CAUCUGG | -0.482
154 | AAUUGCG | 0.0568
155 | AUAGUUU | -0.384
156 | GGCGAGA | 1.74
157 | CUCCAGA | -0.664
158 | AUUUAUC | -0.704
159 | GAGUUUG | 0.512
160 | ACGAGCG | 1.05
161 | GCUCUUG | -0.799
162 | GUCCAAG | -0.0598
163 | GACGCUA | -0.53
164 | GCUUUAG | -0.588
165 | GGAUCUC | -0.176
166 | AAACCCC | -0.788
167 | UUGCCGU | -0.624
168 | AGAGGUA | 2.05

Row | Sequence | RNAcompete 7-mer binding Z-score
169 | UAGACAG | 0.512
170 | GAUGGCG | 1.82
171 | UGAUCGU | -0.446
172 | UCCUCCU | -0.832
173 | AGAAAUU | -0.318
174 | ACACAUG | -0.0962
175 | GACGCUG | -0.522
176 | UGAGCCU | -0.668
177 | UAGUUAA | -0.377
178 | GAAGAGA | 0.989
179 | UUCCCGA | -0.814
180 | ACAUGAG | 0.472
181 | GGAUGUG | 2.82
182 | UGCCUGC | -0.715
183 | CUCACAA | -0.559
184 | CUCCCUC | -0.657
185 | UUCCCUG | -0.737
186 | AGCCUGC | -0.854
187 | GUACGAG | 0.894
188 | UUCACUA | -0.617
189 | UUUAUUG | -0.413
190 | AAGCCAA | -0.0488
191 | UGAUUAA | -0.118
192 | AUGGUAU | 1.21

Row | Sequence | RNAcompete 7-mer binding Z-score
193 | GAAACAG | 1.21
194 | AACCCGU | -0.868
195 | UAUCGAG | 0.13
196 | GUUGGAA | 1.48
197 | CUGCUUA | -0.683
198 | GAACCCA | -0.741
199 | GAAUCUC | -0.697
200 | CGACGCU | -0.653
201 | GAUUCGU | -0.202
202 | CCAUUCU | -0.861
203 | ACGCUUG | -0.814
204 | GUUACUA | -0.231
205 | GUACGGU | 1.28
206 | AUACCUG | -0.617
207 | AUAUACC | -0.628
208 | AAUGAAA | -0.213
209 | ACACGCA | -0.351
210 | UCACAGC | -0.384
211 | UUCUUGG | -0.34
212 | AAGUUAC | -0.289
213 | GGAAAAA | 1.95
214 | GCACAUG | 0.0896
215 | UGGCUGG | 1.04
216 | AGCUCUC | -0.621

Row | Sequence | RNAcompete 7-mer binding Z-score
217 | AACUACC | -0.785
218 | CGCACAC | -0.57
219 | UUAUGUC | -0.613
220 | CUGGAGC | 0.126
221 | UCCGAAA | -0.602
222 | CCAUAUU | -0.857
223 | GAGAGCC | -0.329
224 | UAUAGCA | -0.0962
225 | CAAUCAA | -0.34
226 | CAUGAUC | -0.428
227 | AAGCCCG | -0.887
228 | GCAAUAC | -0.0124
229 | GGUAUUG | 1.09
230 | CCACUCG | -0.73
231 | UUGUAUC | -0.548
232 | UCCAUAC | -0.683
233 | ACCGAUC | -0.726
234 | AAUCACG | -0.198
